This is one part of the list.
Experiments:
Experiment in all cases: glycan array binding signal (z-score within array); higher = stronger binding
Conditions in all cases: glycan notation: IUPAC condensed, linker removed
[1] = target: Fuc(a1-3)[GalNAc(b1-4)]GlcNAc
Outline: (§1)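 Negative Z-scores can be read as non-binding. The Z-score is calculated within each array and then averaged across arrays of one protein sequence at different concentrations or buffers and across linkers. Arrays, 3228 in all, were curated from the Consortium for Functional Glycomics database and kept only where the protein sequence was available.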

[2] = target: Fuc(a1-3)[GalNAc(b1-4)]GlcNAc6S
Outline: as §1

[3] = target: Fuc(a1-4)GlcNAc
Outline: as §1

[4] = target: Fuc(b1-3)GlcNAc
Outline: as §1

[5] = target: Gal(a1-2)Gal
Outline: as §1

[6] = target: Gal(a1-3)Gal
Outline: as §1

[7] = target: Gal(a1-3)Gal(b1-3)GlcNAc
Outline: as §1

[8] = target: Gal(a1-3)Gal(b1-3)GlcNAc(b1-2)Man
Outline: as §1

[9] = target: Gal(a1-3)Gal(b1-3)GlcNAc(b1-2)Man(a1-3)[Gal(a1-3)Gal(b1-3)GlcNAc(b1-2)Man(a1-6)]Man(b1-4)GlcNAc(b1-4)GlcNAc
Outline: as §1

[10] = target: Gal(a1-3)Gal(b1-3)GlcNAc(b1-3)GalNAc
Outline: as §1

[11] = target: Gal(a1-3)Gal(b1-3)GlcNAc(b1-6)GalNAc
Outline: as §1

[12] = target: Gal(a1-3)Gal(b1-3)[Fuc(a1-4)]GlcNAc(b1-2)Man(a1-3)[Gal(a1-3)Gal(b1-3)[Fuc(a1-4)]GlcNAc(b1-2)Man(a1-6)]Man(b1-4)GlcNAc(b1-4)GlcNAc
Outline: as §1

[13] = target: Gal(a1-3)Gal(b1-4)Glc
Outline: as §1

[14] = target: Gal(a1-3)Gal(b1-4)GlcNAc
Outline: as §1

[15] = target: Gal(a1-3)Gal(b1-4)GlcNAc(b1-2)Man
Outline: as §1

[16] = target: Gal(a1-3)Gal(b1-4)GlcNAc(b1-2)Man(a1-3)[Gal(a1-3)Gal(b1-4)GlcNAc(b1-2)Man(a1-6)]Man(b1-4)GlcNAc(b1-4)GlcNAc
Outline: as §1

[17] = target: Gal(a1-3)Gal(b1-4)GlcNAc(b1-3)GalNAc
Outline: as §1

[18] = target: Gal(a1-3)Gal(b1-4)GlcNAc(b1-6)GalNAc
Outline: as §1

[19] = target: Gal(a1-3)Gal(b1-4)[Fuc(a1-3)]GlcNAc
Outline: as §1

[20] = target: Gal(a1-3)Gal(b1-4)[Fuc(a1-3)]GlcNAc(b1-2)Man(a1-3)[Gal(a1-3)Gal(b1-4)[Fuc(a1-3)]GlcNAc(b1-2)Man(a1-6)]Man(b1-4)GlcNAc(b1-4)GlcNAc
Outline: as §1

[21] = target: Gal(a1-3)GalNAc
Outline: as §1

[22] = target: Gal(a1-3)[Gal(a1-4)]Gal(b1-4)GlcNAc
Outline: as §1

[23] = target: Gal(a1-4)Gal(b1-3)GlcNAc(b1-2)Man(a1-3)[Gal(a1-4)Gal(b1-3)GlcNAc(b1-2)Man(a1-6)]Man(b1-4)GlcNAc(b1-4)GlcNAc
Outline: as §1

[24] = target: Gal(a1-4)Gal(b1-4)Glc
Outline: as §1

[25] = target: Gal(a1-4)Gal(b1-4)GlcNAc
Outline: as §1

[26] = target: Gal(a1-4)Gal(b1-4)GlcNAc(b1-2)Man(a1-3)[Gal(a1-4)Gal(b1-4)GlcNAc(b1-2)Man(a1-6)]Man(b1-4)GlcNAc(b1-4)GlcNAc
Outline: as §1

[27] = target: Gal(a1-4)Gal(b1-4)GlcNAc(b1-3)Gal(b1-4)Glc
Outline: as §1

[28] = target: Gal(a1-4)GlcNAc
Outline: as §1

[29] = target: Gal(a1-6)Glc
Outline: as §1

[30] = target: Gal(b1-2)Gal
Outline: as §1

[31] = target: Gal(b1-3)Gal
Outline: as §1

[32] = target: Gal(b1-3)Gal(b1-4)GlcNAc
Outline: as §1

[33] = target: Gal(b1-3)GalNAc
Outline: as §1

[34] = target: Gal(b1-3)GalNAc(a1-3)[Fuc(a1-2)]Gal(b1-4)Glc
Outline: as §1

[35] = target: Gal(b1-3)GalNAc(a1-3)[Fuc(a1-2)]Gal(b1-4)GlcNAc
Outline: as §1

[36] = target: Gal(b1-3)GalNAc(b1-3)Gal
Outline: as §1

[37] = target: Gal(b1-3)GalNAc(b1-3)Gal(a1-4)Gal(b1-4)Glc
Outline: as §1

B1: Pbx1 (Cryptococcus neoformans) (protein)
chain: ATTKCLVSGDQDSINNALALGGEGTTVTLCPGSVHRLNSSIIFTAPSQTLTTLGNPKDRNRAMLVVDGEDLACAIRADCKQCSHAMIRSLVIDGNRPQLLRIPKGDALIEVGNAESQTVRDCKLYEPRGWSALHFREGDERQCRFGHIVDNEIGPCGEEWDDEYDSMDETKPLWGNPRADGISLACKDSIVERNVVYDATDGAIVLFGSAGSTVKNNHVYARTRVILGGINLVDYEPWDGDYTNVKVHHNHLYALGRYFKVGIVIGPASWSDDTESVVHSASVTDNEFSGGYWGYGIVVASAKNFEVLRNKVIWDGEQGVARFSGVPGSRCPKAPENGKPTAFLINRGSAKGIFQDDFVNGEVQHIICLNPDQDPPYKPWRFRDSPEAIAAKQAENPTANSAFDSRIAEALVSYQMSLLNSMDAMTQKVEHLTNPIVDDALPFVHEHERAEADKKARQEASRKEKESGNKDVDMLNVKVEELEKSGRRLKKALDGLKSDFEGLSGRLKKSADENKPIIETIFVTSQNLLLGATSQQN
glycan array binding signal (z-score) [1]: -0.199 | glycan array binding signal (z-score) [2]: -0.113 | glycan array binding signal (z-score) [3]: -0.495 | glycan array binding signal (z-score) [4]: -0.308 | glycan array binding signal (z-score) [5]: 0.197 | glycan array binding signal (z-score) [6]: -0.553 | glycan array binding signal (z-score) [7]: -0.267 | glycan array binding signal (z-score) [8]: 1.04 | glycan array binding signal (z-score) [9]: -0.308 | glycan array binding signal (z-score) [10]: -0.71 | glycan array binding signal (z-score) [11]: -0.38 | glycan array binding signal (z-score) [12]: 0.645 | glycan array binding signal (z-score) [13]: -0.233 | glycan array binding signal (z-score) [14]: -0.019 | glycan array binding signal (z-score) [15]: 0.052 | glycan array binding signal (z-score) [16]: 0.276 | glycan array binding signal (z-score) [17]: 0.661 | glycan array binding signal (z-score) [18]: 1.25 | glycan array binding signal (z-score) [19]: -0.987 | glycan array binding signal (z-score) [20]: 1.75 | glycan array binding signal (z-score) [21]: -0.233 | glycan array binding signal (z-score) [22]: 0.498 | glycan array binding signal (z-score) [23]: 2.14 | glycan array binding signal (z-score) [24]: 0.349 | glycan array binding signal (z-score) [25]: 0.846 | glycan array binding signal (z-score) [26]: 2.25 | glycan array binding signal (z-score) [27]: -0.696 | glycan array binding signal (z-score) [28]: -0.459 | glycan array binding signal (z-score) [29]: -0.908 | glycan array binding signal (z-score) [30]: -0.107 | glycan array binding signal (z-score) [31]: -0.01 | glycan array binding signal (z-score) [32]: -0.349 | glycan array binding signal (z-score) [33]: -0.314 | glycan array binding signal (z-score) [34]: -0.364 | glycan array binding signal (z-score) [35]: -0.408 | glycan array binding signal (z-score) [36]: -0.388 | glycan array binding signal (z-score) [37]: -0.278

From the supplement of paper PMC8728848
